Experimental data from the RNAGym collection of RNA variant scans (doi:10.1093/nar/gkz1192).
The source gives no read counts; variants with many changes may rest on few reads.

B1: CPEB3 Ribozyme (parent)
chain: UAACAGGGGGCCACAGCAGAAGCGUUCACGUCGCAGCCCCUGUCAGAUUCUGGUGAAUCUGCGAAUUCUGCUGUAUAUCUC

Variants of: B1
Assay: self-cleavage, relative activity (ratio to wild type); higher = more cleavage; in vitro, sequencing
Method in brief: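 CPEB3 self-cleaving ribozyme mutant libraries were made by rounds of error-prone PCR, barcoded, and transcribed in vitro with T7 RNA polymerase for 5 hours at 37°C. Cleavage occurred during transcription and a 15 min DNase I step before EDTA stop. RNAs were reverse transcribed with template switching and Illumina-sequenced, with DNA sequencing mapping barcodes to variants. Relative activity is the variant's cleaved/total read fraction divided by wild type's (minimum 5 reads), averaged across three batches.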

| Variant | self-cleavage |
| --- | --- |
| UAACAGGGGGCGACAGCAGAAGCGUUCACGUCGCAGCCCCUGUCAGAUUCAGGUGAAUCUGUGAAUUCUGCUGUAUAUCUC [C12G U51A C62U] | 0.11 |
| UAACAGGGGGCAACAGCAGAAGCGUUCACGUCGCAGCCCCCGUCAGAUUCUGGUGAAUCCGCGAAUUCUGCUGUAUAUCUC [C12A U41C U60C] | 0.69 |
| UAACAGGGGGCAACAGCAGAAGCGUACACGUCGCAGCCCGUGACAGAUUCUGGUGAGUCUGCGAGUUCUGCUGUAUAUCUC [C12A U26A C40G U43A A57G A65G] | 0.08 |
| UAACAGGGGGCGACAGCAGAAGCGUACACGUCGCAGCCCCUGACAGAACCUGGUGAAUCUGCGAAUUUUGCUGUAUAUCAC [C12G U26A U43A U48A U49C C68U U80A] | 0.03 |
| UAACAGGGGGCGACAGCAGUAGCGUUCACGUCGCAGCCCCUGUCAGAUUCUGGUGAAUCUGCGAGUACUGCUGAAUAUCUC [C12G A20U A65G U67A U74A] | 0.12 |
| UAACAGGGGGCAACAGCAGAAGCGUCCACGGCGCAGCCCCUGACAGAUCCUGGCGAAUCUGCGGAUUCUGCUGUAUAUCUC [C12A U26C U31G U43A U49C U54C A64G] | 0.04 |
| UAACAGGGGGCAACAGCAGAAGCGUACACGUCGCAGCCCCUGUCAGAUGCUGGUGAAUCUGCGAAUUCUGCUGUAUAUCUC [C12A U26A U49G] | 0.39 |
| UAACAGGGGGCAACAGCUGAAGCGUUCACGACGCAGCCCCUGUCAGAUUCUGGUGAAUCUGCGAAUUCUGCUGUAUAUCUC [C12A A18U U31A] | 0.49 |
| UAACAGGGGGCAACAGCAGAACCGUUCACGUCGCAGCCCCUGUCAGAUUCUGGUGAAUCUGCGAAUACUGCUGUAUAUCUC [C12A G22C U67A] | 0.13 |
| UAACAGGGGGCUUCAGCAGAAGCGUUCGCGUCGCAGCCCCAGUCAGAUUCUGGUGAAUCUGCGUAUUCUGCUGUAUGCCUC [C12U A13U A28G U41A A64U A77G U78C] | 0.05 |
| UAACAGGGGGCGGCAGCAGAAGCGUUCACGUCGCAGCCCCUGACUGACUCUGGUGAAUCUGCGAAUUCAGCUGUAUAUCUC [C12G A13G U43A A45U U48C U69A] | 0.05 |
| UAACAGGGGGCGAAAGCAGAAGCGUACUCGUCGCAGCACCUGUCAGAUUCUGGUGAAUCUGCUAAUUCUGCUGUAUAUCUC [C12G C14A U26A A28U C38A G63U] | 0.05 |
| UAACAGGGGGCGACAGCAGAAGCGCUCACGUCGCAGCCCCUGUCAGAUUCUGGUGAAUCAGCGAACUCUGCUGUAUAUCUC [C12G U25C U60A U66C] | 0.14 |
| UAACAGGGGGCUGCAGCAGAAGCGUUGACGUCGCAGCCCCUGUCAGGUUCUGGUGAAUCUGGGAAUUCUGCUGCAUAUCUC [C12U A13G C27G A47G C62G U74C] | 0.09 |
| UAACAGGGGGCGUCAGCAGAAGCGUUCAGGUCGCAGCCCCUGUCAGAUUCUGGUGAAUCUGCGAAUUCUGCUGUAUAUCUC [C12G A13U C29G] | 0.13 |
| UAACAGGGGGCAACAGCAGAAGCGUUCACGUCGCAGCCCCUGCCAGAUUCUGGUGAGUCUGCGAAUUCUGCCGUAUAUCUC [C12A U43C A57G U72C] | 0.51 |
| UAACAGGGGGCGACGGCAGAAGCGCUCACGUCGCAGCCCAUGUCAGAUUCUGGUGAAUCUGCGAAUUCUGCUGUAUAUCUC [C12G A15G U25C C40A] | 0.06 |

| Variant | self-cleavage |
| --- | --- |
| UAACAGGGGGCUACCGCAGAAGCGUUCACGUCGCGGCCCCUGUCAGAUUCCGGUGAAUCUGCGAAUUCUGCUGUAUAUCUC [C12U A15C A35G U51C] | 0.67 |
| UAACAGGGGGCGACAGCAGAAGCGUCCACGUCGCAGCCCCAGUCAGACUCUGGUGAAUCUGCGAAUUCUGCUGUAUAUCUC [C12G U26C U41A U48C] | 0.21 |
| UAACAGGGGGCAACAGCAGAAGCGUUCUCGUCGCAGCCCCUGUCAGAUUCUGGUGAAACUGCGAAUUCUGCUGUAUAUCUC [C12A A28U U58A] | 0.32 |
| UAACAGGGGGCAACGGCAGAAGCGUUCACGUCGCAGCCACUGCCAGAUUCUGGUGAAUCAGCGAAUUCUGCUGUAUAUCUC [C12A A15G C39A U43C U60A] | 0.35 |
| UAACAGGGGGCAACUGCAGAAGCGUUCACGCCGCAGCCCCUGUCAGAUUCUGGUGAAUCUGCGAAUUCUGCUGUAUAUCUC [C12A A15U U31C] | 0.44 |
| UAACAGGGGGCGACAGGAGAAGCGCUCACGUCGCAGCCCCUGUCAGAUUCUGGUGAAUCUGCGAAUUCUGCUGUAUAUCUC [C12G C17G U25C] | 0.35 |
| UAACAGGGGGCUACUGCAGAAGCGUUCAUGUCGCGGCCCCUGUCAGAUUCUGGUGAAUCUGCGAAUUCUGCUGUAUAUCUC [C12U A15U C29U A35G] | 0.59 |
| UAACAGGGGGCGACAGCAGAAGUGUUCACGUCGCAGCCCCUGUCAGAUUCUGGUGAAUCUGCGAAUUCUGCUGUAUAUCGC [C12G C23U U80G] | 0.14 |
| UAACAGGGGGCUACAGCGGAAGCGUUCAGGUCGCAGCCCCUGUCAGAUUCUGGUGAAUCUGCGAAUUCUGCUGUAUAUCUC [C12U A18G C29G] | 0.7 |
| UAACAGGGGGCGACAGCAGAAGCGUUCACGUCGCAGCCCCUGGCAGAUUCUGGUGAAUCCGCGUAUUCUGCUGUAUAUCCC [C12G U43G U60C A64U U80C] | 0.06 |
| UAACAGGGGGCGACAGCAGAGGCGUCCACGUCGCAGCCCCUGUCAGGUUCUGGCGGAUCUGCGAAUUCUGCUGUAUAUCUC [C12G A21G U26C A47G U54C A56G] | 0.1 |
| UAACAGGGGGCUUCAGCAGAAGCGUUCACGUCGCAGCCCCUGUCUGAUUCUGGUGAAUCUGCGAAUUCUGCUGUAUAUCUC [C12U A13U A45U] | 1.05 |
| UAACAGGGGGCGGCAGCAGAAGCGUUCACGACGCAGCCCCCGUCAGACUCUGGUGAAUCUGCGAAUUCUGCUGUAUAACUC [C12G A13G U31A U41C U48C U78A] | 0.15 |
| UAACAGGGGGCAACAGCGGAAGCGUUCACGUCGCAGCCCCUGUCAGAUACUGGUGAAUCUGCGAAUUCCGCUGUAUAUCUC [C12A A18G U49A U69C] | 0.85 |
| UAACAGGGGGCAACAGCAGAAGCGUUCGCGUCGCAGCCCCUGUCAGGUUCUAGUGAAUCUGCGAGUUCUGCUGUAUAGCUC [C12A A28G A47G G52A A65G U78G] | 0.15 |
| UAACAGGGGGCUACGGCAGAAGCGUUCACGUCGCAGCCCCUGUCAGAUUCUGGUGAAUCUGCGAAUCCUGCCGUAUAUCUC [C12U A15G U67C U72C] | 0.31 |
| UAACAGGGGGCGACAGCUGAAGCGUUCUCGUCGCAGCCCCUGUCAGAUUCCGGUGAAUCUGCGAAUUCUGCUGUAUAUCUC [C12G A18U A28U U51C] | 0.16 |
